From the supplement of paper PMC10338343
± gives the standard deviation. This is a selection; strong and weak results do not stand in their true shares.

Test system: MIWI (PIWIL1) piRISC loaded with piRNA #1 (30 nt)
Assay: pre-steady-state target cleavage rate (min^-1); MIWI and MILI are mouse PIWI proteins and EfPiwi is from a freshwater sponge; tags in brackets are library labels; higher = faster piRNA-guided slicing of the target
Conditions: guide: piRNA #1 5'p-UGAGGUAGUAGGUUGUAUAGUAUCCAGAGG; auxiliary factor: 500 nM mouse GTSF1
How it was run: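 A transcribed, DNA-blocked target RNA library […] was incubated at 33 °C for 0–8 or 0–960 min with 1 nM active affinity-purified piRISC carrying one synthetic guide, in HEPES–potassium acetate buffer with or without 500 nM GTSF1 partner protein. Uncleaved targets were then sequenced and normalised to depth and to weakly complementary targets. Data from three trials were pooled, with k3 capped at 0.0001 min^-1, and a burst-and-steady-state fit yielded the pre-steady-state cleavage rate.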
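Also: 1 nM active piRISC with 0.1 nM target library at 33 °C single turnover.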

| Sequence | pre-steady-state target cleavage rate |
| --- | --- |
| GGAGAGGAAACUAUACAACCAACUACCUCA | 0.103 ± 0.014 |
| GGAGAGUGAUACUAUACAACCUACUACCUCA | 2.1 ± 0.15 |
| GGUCUGGUUACUAUACAACCUACUAGCUCA | 0.105 ± 0.018 |
| GGAGACCUUACUAUACAACCUACUAUCUCA | 1.05 ± 0.095 |
| GGAGACCUUACUAUACAUCCUACUACCUCA | 1.19 ± 0.086 |
| GGAGACGAGUACUAUACAACCUACUACCUCA | 1.47 ± 0.12 |
| GGAGACCUAACUAUACAACCUCCUACCUCA | 0.582 ± 0.049 |
| GGAGACCUUACUAUACAACCUACUACCUAA | 1.49 ± 0.11 |
| GGUCUGGAUACUAUACAACGUACUAGCUCA | 0.0477 ± 0.014 |
| GGAGACCUUACUAUACUACCUACUACGUCA | 0.291 ± 0.027 |
| GGAGACGAUACUAUACAUCCUACUACCUCA | 1.41 ± 0.088 |
| GGAGAGGUUACUUUACAACCUACUACCUCA | 1.39 ± 0.072 |
| CCUGUGGAUACUAUACAACCUACUACGUCA | 0.63 ± 0.066 |
| GGAGACCUAUCUAUACAACGUACUAGCUCA | 0.0147 ± 0.0048 |
| GGAGACCUAACUUUACAACGUACUACCUCA | 0.00883 ± 0.0044 |
| GGAGACUAUACUAUACAACCUACUACCUCA | 1.72 ± 0.12 |
| GGAGACGAUACUAUACAACCUACUACCGCA | 0.805 ± 0.055 |
| GGAGACCAUACUAUACAACCUACUACCUGA | 1.03 ± 0.076 |
| GGAGACGAUACUAUACAACCUACUUCCUGA | 0.254 ± 0.067 |
| GGUCUGGAUACUAAACAAGCUACUACCUCA | 1.09 ± 0.059 |

| Sequence | pre-steady-state target cleavage rate |
| --- | --- |
| GGAGUGGAUUCUAUACAACCUACUACCUGA | 0.441 ± 0.076 |
| GGAGACCAUACUAUAUCAACCUACUACCUCA | 0.0917 ± 0.016 |
| GGACUGGAUACUAUACAACCUACUACGAGA | 0.00844 ± 0.0069 |
| GGACUGGAUACUAUACAUCCAACUACCUCA | 0.0649 ± 0.0092 |
| GGUCUGGAUACUAUACAACCUACUCACCUCA | 0.819 ± 0.096 |
| GCUCUGGAUACUACACAACCUACUACCUCA | 1.89 ± 0.095 |
| GGAGACCUUACUAUACAACCUACUACCGUCA | 0.84 ± 0.062 |
| CCUCUGGAUACUAUACACCCUACUACCUCA | 1.76 ± 0.098 |
| GCUCUGGAUACUAUACAACCAACUACGUCA | 0.0947 ± 0.012 |
| GGAGUGGAUACUACUACAACCUACUACCUCA | 1.42 ± 0.098 |
| GGUCUGGAUCCUAUACAACCUACUACCUCA | 1.57 ± 0.11 |
| GGUCUGGAUACUAUAACAACCUACUACCUCA | 1.69 ± 0.12 |
| GGUCUGGAUAUAUACAACCUACUACCUCA | 1.7 ± 0.12 |
| GGAGACGAUACUAUUGAACCUACUACCUCA | 0.904 ± 0.067 |
| CCUCUGUGAUACUAUACAACCUACUACCUCA | 1.82 ± 0.092 |
| GGAGUGGAUACUAUACAACCUACUACACUCA | 0.602 ± 0.088 |
| GGAGACCAUACUAUGACAACCUACUACCUCA | 1.12 ± 0.076 |
| GGACUGGAAACUAUACAUCCUACUACCUCA | 0.968 ± 0.088 |
| GGAGACGAUACUAUACAACCUACUACUCUCA | 1.51 ± 0.095 |
| GGAGACGAUACUAUAGAACCUAGUACCUCA | 0.00875 ± 0.0044 |
